# Test results as given in the supplement of paper PMC4166925.
# ± gives the standard deviation of the averaged measurements. In all, about 33,000 sequences were measured (“E-score (dimensionless, -0.5 to 0.5)”: median about -0.049, highest 2% from about 0.37 on). The list shows a part of the results.
# Tested on: T1, PmTbr T-box DNA-binding domain (GST fusion)
# T1 sequence: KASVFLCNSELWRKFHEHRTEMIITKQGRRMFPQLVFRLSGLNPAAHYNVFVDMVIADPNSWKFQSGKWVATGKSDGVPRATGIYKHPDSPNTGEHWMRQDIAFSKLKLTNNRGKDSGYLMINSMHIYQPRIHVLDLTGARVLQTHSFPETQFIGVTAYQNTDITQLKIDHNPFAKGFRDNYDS
# Test: PBM E-score of 8-mer (E-score (dimensionless, -0.5 to 0.5)); Tbr is Tbrain of the sea star Patiria miniata (Pm) or the sea urchin Strongylocentrotus purpuratus (Sp); higher = stronger binding preference; most listed sequences are background and not binding sites
# Settings: the construct has about 5 more residues each side
# Experimental: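 Universal protein-binding microarray (Agilent AMADID 016060, 60-bp probes with a 35-bp variable region) incubated with 200 nM GST-fused Patiria miniata Tbr T-box DNA-binding domain (residues 272-466) in PBS pH 7.5. Scored for every ungapped 8-mer (given with its reverse complement) by the Universal PBM Analysis Suite as E-score (modified Wilcoxon-Mann-Whitney enrichment, range -0.5 to 0.5; >0.45 counts as bound) and Z-score of median probe intensity. Two replicate arrays (datasets 1 and 2).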
# 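Note: 200 nM protein in PBS on universal arrays averaged over duplicate arrays.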
row,Sequence,PBM E-score of 8-mer
1,TGTAATAA,0.0238 ± 0.14
2,CTGATGAA,-0.00161 ± 0.098
3,AACCTGTC,0.30927 ± 0.00016
4,AATCATCA,0.153 ± 0.021
5,CATGGAAA,-0.108 ± 0.022
6,ACAGCAGG,-0.0233 ± 0.061
7,GAGTGGGA,0.0301 ± 0.01
8,CCACGCGG,-0.0574 ± 0.0026
9,CCCATTAA,-0.0255 ± 0.068
10,GAAGCATA,-0.215 ± 0.014
11,GCTATTTA,-0.0124 ± 0.033
12,ATGACGGA,-0.112 ± 0.07
13,ACGCACTG,-0.0386 ± 0.054
14,AAAAGACA,-0.0601 ± 0.029
15,CTGTTTAC,0.071 ± 0.057
16,ACTCTGCC,-0.0304 ± 0.22
17,ACCGAGAA,0.0157 ± 0.05
18,CTCCTAAC,-0.0554 ± 0.0048
19,AATTCATA,-0.105 ± 0.05
20,CCAGTTAA,-0.038 ± 0.082
21,CCATAGAC,-0.125 ± 0.027
22,GTTATCCA,-0.0787 ± 0.055
23,AACGTAGG,-0.125 ± 0.0043
24,GACCGTCC,-0.285 ± 0.035
25,AACACGTA,0.34 ± 0.024

row,Sequence,PBM E-score of 8-mer
1,CAAAGCTC,-0.27 ± 0.043
2,CCAAACAG,-0.106 ± 0.092
3,GAGTAGAC,-0.108 ± 0.038
4,GAGCGCTA,0.15 ± 0.059
5,GCCAGGAA,0.029 ± 0.044
6,AGTGACAT,0.309 ± 0.017
7,ATCTAGAT,-0.0368 ± 0.064
8,AGGTTTGG,-0.19 ± 0.043
9,ACAAGTCC,0.0707 ± 0.041
10,CAGTGCCA,0.1759 ± 0.00025
11,CTCTTAGC,0.0198 ± 0.0047
12,ATCAGTCA,-0.125 ± 0.057
13,ATGAACTC,-0.224 ± 0.041
14,GAATAACA,0.148 ± 0.0084
15,GACCACTA,-0.146 ± 0.042
16,AGGAGAAA,-0.109 ± 0.19
17,CTCTATGA,0.0103 ± 0.013
18,AAATTGCG,0.0455 ± 0.011
19,AATAGACA,0.0687 ± 0.04
20,GTGTACAA,0.0145 ± 0.089
21,GGCTTTAC,-0.202 ± 0.092
22,ACCGGAGT,0.00344 ± 0.032
23,ACGCTCCC,-0.0122 ± 0.036
24,AAGCCATA,-0.228 ± 0.051
25,TCTTTTCA,-0.0322 ± 0.15

row,Sequence,PBM E-score of 8-mer
1,GAACGGTC,0.0352 ± 0.063
2,AATATATC,-0.166 ± 0.084
3,ATTACCAC,0.226 ± 0.032
4,AGGAAAAT,-0.141 ± 0.042
5,AACTGACA,0.283 ± 0.032
6,GAAGCTTA,-0.128 ± 0.049
7,CTATGTAC,-0.179 ± 0.03
8,GAGACGGC,-0.0695 ± 0.089
9,CGGCACCA,0.203 ± 0.048
10,GATTAAGA,-0.0946 ± 0.089
11,GGATCAGA,-0.195 ± 0.061
12,AATACCAA,-0.134 ± 0.066
13,AACTAATC,-0.241 ± 0.053
14,AACAAGAG,-0.132 ± 0.04
15,CATGCCAC,0.171 ± 0.022
16,AAAATTAA,-0.0941 ± 0.041
17,CTTTCACA,0.444 ± 0.0053
18,GCGGCCTA,0.00511 ± 0.018
19,CTACTCAG,-0.135 ± 0.036
20,TACGTGAA,-0.0139 ± 0.046
21,CTAAGGGA,-0.17 ± 0.042
22,AATGCCTG,0.00523 ± 0.028
23,AGCGGTCC,-0.143 ± 0.026
24,CCCGACGG,-0.045 ± 0.07
25,ATAAGTTC,-0.116 ± 0.031

row,Sequence,PBM E-score of 8-mer
1,TATCGCCA,0.225 ± 0.027
2,CATCACAA,0.179 ± 0.006
3,ACAAGTCT,0.103 ± 0.044
4,TATCGACA,0.26 ± 0.0068
5,AGACATAT,-0.0508 ± 0.015
6,CACTCGTC,0.126 ± 0.052
7,GAACTACA,0.0281 ± 0.036
8,GTGATCCA,0.00846 ± 0.00087
9,AAAGCCGG,-0.119 ± 0.14
10,CGACATCA,-0.0987 ± 0.091
11,AGCGGCGC,-0.0283 ± 0.055
12,AGATAGTA,-0.0103 ± 0.026
13,GGGAGCCA,-0.135 ± 0.14
14,GCCCTTAA,-0.03775 ± 0.00031
15,GAAGGGTC,-0.165 ± 0.042
16,CGGGCAAC,-0.0923 ± 0.024
17,GTACCACA,0.000605 ± 0.065
18,CATAATAG,-0.123 ± 0.0049
19,CCATATCA,0.108 ± 0.0076
20,CGACCCGC,0.0638 ± 0.034
21,AGCTTCAT,-0.00536 ± 0.11
22,ACGCCTGG,0.236 ± 0.015
23,GTTTTTTA,-0.146 ± 0.0032
24,GCTTCTCA,0.00035 ± 0.019
25,CCGGTAGG,0.00648 ± 0.031

row,Sequence,PBM E-score of 8-mer
1,AGTCTTTC,-0.0776 ± 0.013
2,AACTACTC,0.0553 ± 0.088
3,CCTCGGGA,-0.0786 ± 0.042
4,CACTCGGC,0.134 ± 0.047
5,AACTTTAC,0.189 ± 0.013
6,ATGCACCA,-0.108 ± 0.0049
7,AAGCGAAT,-0.167 ± 0.0081
8,CGCGTCCA,0.0133 ± 0.085
9,GGATACCC,-0.327 ± 0.049
10,CGCCTTTC,0.136 ± 0.032
11,ATAAATGA,0.0609 ± 0.074
12,TAATTGAA,-0.103 ± 0.083
13,AATCCCAT,-0.259 ± 0.033
14,GATCCCGC,0.0206 ± 0.097
15,CGAGATCG,0.112 ± 0.0089
16,AGACGAAA,-0.309 ± 0.015
17,CCAGCGCC,0.0641 ± 0.058
18,CCGAGTCC,-0.105 ± 0.046
19,AAGATGCA,-0.103 ± 0.042
20,GGTAGTAA,-0.119 ± 0.024
21,AAGGTCGA,-0.122 ± 0.069
22,GGTCGAAC,0.171 ± 0.0062
23,AGATTGCG,0.125 ± 0.017
24,GCGCGCTA,0.139 ± 0.038
25,GTATCTCA,0.138 ± 0.024

row,Sequence,PBM E-score of 8-mer
1,CACCGTCA,0.185 ± 0.02
2,CTGGGAAA,0.02 ± 0.0017
3,AGTCATAA,-0.174 ± 0.029
4,CAGAGCTG,0.0809 ± 0.048
5,AATCAGAC,-0.278 ± 0.022
6,AGATGACA,0.238 ± 0.036
7,TCATCTAA,0.0146 ± 0.031
8,GGAGAAAA,-0.0966 ± 0.046
9,TATCCGGA,-0.185 ± 0.012
10,CCACAACG,0.0105 ± 0.03
11,CCGGGGCG,-0.0264 ± 0.0056
12,CAATCGTG,0.0831 ± 0.044
13,CATCCACG,-0.116 ± 0.014
14,GCCATGCA,-0.113 ± 0.0053
15,ATTCTTTA,0.0408 ± 0.0071
16,GCCGTAAA,-0.212 ± 0.073
17,GTCTAGTA,-0.187 ± 0.038
18,ATGGCTGC,-0.0427 ± 0.042
19,ACTAGTTA,-0.00566 ± 0.032
20,ACGGAACG,-0.065 ± 0.057
21,CCTAATAC,0.00426 ± 0.062
22,TCAGAAGA,-0.146 ± 0.013
23,CTTATAAA,-0.0152 ± 0.067
24,CGCAAACA,0.214 ± 0.011
25,CAGTGGCC,-0.0781 ± 0.086

row,Sequence,PBM E-score of 8-mer
1,CCCCTTGC,-0.131 ± 0.022
2,CAAATAGC,-4e-05 ± 0.0049
3,CTCCTGTA,-0.155 ± 0.04
4,ACGACCGC,-0.0605 ± 0.055
5,TCCTACGA,-0.0359 ± 0.055
6,TTCCCGAA,-0.118 ± 0.051
7,AGTGGGGA,0.154 ± 0.027
8,AAGCTCTC,-0.0475 ± 0.014
9,AGTTACTC,-0.0173 ± 0.08
10,ATATTTTG,-0.0355 ± 0.024
11,ACTGTGTA,-0.0774 ± 0.065
12,ACGCTATA,0.0128 ± 0.053
13,AAATTGAC,0.13 ± 0.039
14,CCTTTTAG,0.0723 ± 0.088
15,ATATATAA,-0.0818 ± 0.024
16,ATGTCTCA,-0.049 ± 0.016
17,CCCGTATA,-0.0721 ± 0.019
18,ACTCTGCT,0.0918 ± 0.048
19,CCACACTC,0.321 ± 0.016
20,ATGCGAGC,0.0655 ± 0.061
21,ATACAAAA,-0.165 ± 0.0021
22,GCACGTAC,0.255 ± 0.063
